# Experimental data reported in PMC9911399, “Two distinct binding modes provide the RNA-binding protein RbFox with extraordinary sequence specificity”.
# Positions count from the first letter of the chain named. This is one part of the list.
# T1: RBFOX1 RRM (Homo sapiens, UniProt Q9NWB1 109-208)
# T1 sequence: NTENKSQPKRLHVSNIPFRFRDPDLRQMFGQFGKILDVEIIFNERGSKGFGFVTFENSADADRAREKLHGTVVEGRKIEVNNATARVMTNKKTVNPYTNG
# B1: UGCGGCG (DNA:RNA)
# RNA: GGGAGACCGGAAUUCAGAUUGUCCUGCGGCGUUAAAUCCCGUCGUAGCCACCA
# DNA 1: CAATCTGAATTCCGGTCTCCC
# DNA 2: TGGTGGCTACGACGGGATT
# B2: UGUUGAG (DNA:RNA)
# RNA: B1 RNA with C27U, G28U, C30A
# DNA 1: CAATCTGAATTCCGGTCTCCC
# DNA 2: TGGTGGCTACGACGGGATT
# B3: GCACGGC (DNA:RNA)
# RNA: B1 RNA with U25G, G26C, C27A, G28C, C30G, G31C
# DNA 1: CAATCTGAATTCCGGTCTCCC
# DNA 2: TGGTGGCTACGACGGGATT
# B4: AGGCCUA (DNA:RNA)
# RNA: B1 RNA with U25A, C27G, G28C, G29C, C30U, G31A
# DNA 1: CAATCTGAATTCCGGTCTCCC
# DNA 2: TGGTGGCTACGACGGGATT
# B5: CACGAUG (DNA:RNA)
# RNA: B1 RNA with U25C, G26A, G29A, C30U
# DNA 1: CAATCTGAATTCCGGTCTCCC
# DNA 2: TGGTGGCTACGACGGGATT
# B6: CCAUCGG (DNA:RNA)
# RNA: B1 RNA with U25C, G26C, C27A, G28U, G29C, C30G
# DNA 1: CAATCTGAATTCCGGTCTCCC
# DNA 2: TGGTGGCTACGACGGGATT
# B7: AGAACAG (DNA:RNA)
# RNA: B1 RNA with U25A, C27A, G28A, G29C, C30A
# DNA 1: CAATCTGAATTCCGGTCTCCC
# DNA 2: TGGTGGCTACGACGGGATT
# B8: AUUAAUU (DNA:RNA)
# RNA: GGGAGACCGGAAUUCAGAUUGUCCAUUAAUUUUAAAUCCCGUCGUAGCCACCA
# DNA 1: CAATCTGAATTCCGGTCTCCC
# DNA 2: TGGTGGCTACGACGGGATT
# B9: CUAUGGC (DNA:RNA)
# RNA: B8 RNA with A25C, U27A, A28U, A29G, U30G, U31C
# DNA 1: CAATCTGAATTCCGGTCTCCC
# DNA 2: TGGTGGCTACGACGGGATT
# B10: GGAGACC (DNA:RNA)
# RNA: B1 RNA with U25G, C27A, G29A, G31C
# DNA 1: CAATCTGAATTCCGGTCTCCC
# DNA 2: TGGTGGCTACGACGGGATT
# B11: UACCGAG (DNA:RNA)
# RNA: B1 RNA with G26A, G28C, C30A
# DNA 1: CAATCTGAATTCCGGTCTCCC
# DNA 2: TGGTGGCTACGACGGGATT
# B12: CCAGAUU (DNA:RNA)
# RNA: B8 RNA with A25C, U26C, U27A, A28G
# DNA 1: CAATCTGAATTCCGGTCTCCC
# DNA 2: TGGTGGCTACGACGGGATT
# B13: GGGCCGU (DNA:RNA)
# RNA: B8 RNA with A25G, U26G, U27G, A28C, A29C, U30G
# DNA 1: CAATCTGAATTCCGGTCTCCC
# DNA 2: TGGTGGCTACGACGGGATT
# B14: GGUUUGA (DNA:RNA)
# RNA: B8 RNA with A25G, U26G, A28U, A29U, U30G, U31A
# DNA 1: CAATCTGAATTCCGGTCTCCC
# DNA 2: TGGTGGCTACGACGGGATT
# B15: AUAGUAA (DNA:RNA)
# RNA: B8 RNA with U27A, A28G, A29U, U30A, U31A
# DNA 1: CAATCTGAATTCCGGTCTCCC
# DNA 2: TGGTGGCTACGACGGGATT
# B16: CCGUGUC (DNA:RNA)
# RNA: B8 RNA with A25C, U26C, U27G, A28U, A29G, U31C
# DNA 1: CAATCTGAATTCCGGTCTCCC
# DNA 2: TGGTGGCTACGACGGGATT
# B17: UGCCUCG (DNA:RNA)
# RNA: B1 RNA with G28C, G29U
# DNA 1: CAATCTGAATTCCGGTCTCCC
# DNA 2: TGGTGGCTACGACGGGATT
# B18: GGCAUUC (DNA:RNA)
# RNA: B8 RNA with A25G, U26G, U27C, A29U, U31C
# DNA 1: CAATCTGAATTCCGGTCTCCC
# DNA 2: TGGTGGCTACGACGGGATT
# B19: GUUGGAG (DNA:RNA)
# RNA: B1 RNA with U25G, G26U, C27U, C30A
# DNA 1: CAATCTGAATTCCGGTCTCCC
# DNA 2: TGGTGGCTACGACGGGATT
# B20: GCCAAAG (DNA:RNA)
# RNA: B8 RNA with A25G, U26C, U27C, U30A, U31G
# DNA 1: CAATCTGAATTCCGGTCTCCC
# DNA 2: TGGTGGCTACGACGGGATT
# B21: CGGCCGU (DNA:RNA)
# RNA: B8 RNA with A25C, U26G, U27G, A28C, A29C, U30G
# DNA 1: CAATCTGAATTCCGGTCTCCC
# DNA 2: TGGTGGCTACGACGGGATT
# B22: CUCACCG (DNA:RNA)
# RNA: B1 RNA with U25C, G26U, G28A, G29C
# DNA 1: CAATCTGAATTCCGGTCTCCC
# DNA 2: TGGTGGCTACGACGGGATT
# B23: AUUUAUU (DNA:RNA)
# RNA: B8 RNA with A28U
# DNA 1: CAATCTGAATTCCGGTCTCCC
# DNA 2: TGGTGGCTACGACGGGATT
# B24: GCACGCA (DNA:RNA)
# RNA: B1 RNA with U25G, G26C, C27A, G28C, G31A
# DNA 1: CAATCTGAATTCCGGTCTCCC
# DNA 2: TGGTGGCTACGACGGGATT
# B25: GCCAGAA (DNA:RNA)
# RNA: B1 RNA with U25G, G26C, G28A, C30A, G31A
# DNA 1: CAATCTGAATTCCGGTCTCCC
# DNA 2: TGGTGGCTACGACGGGATT
# B26: UACGCGG (DNA:RNA)
# RNA: B1 RNA with G26A, G29C, C30G
# DNA 1: CAATCTGAATTCCGGTCTCCC
# DNA 2: TGGTGGCTACGACGGGATT
# B27: GCGAAUA (DNA:RNA)
# RNA: B8 RNA with A25G, U26C, U27G, U31A
# DNA 1: CAATCTGAATTCCGGTCTCCC
# DNA 2: TGGTGGCTACGACGGGATT
# B28: CCGUGUU (DNA:RNA)
# RNA: B8 RNA with A25C, U26C, U27G, A28U, A29G
# DNA 1: CAATCTGAATTCCGGTCTCCC
# DNA 2: TGGTGGCTACGACGGGATT
# B29: UUAUGUC (DNA:RNA)
# RNA: B8 RNA with A25U, U27A, A28U, A29G, U31C
# DNA 1: CAATCTGAATTCCGGTCTCCC
# DNA 2: TGGTGGCTACGACGGGATT
# B30: UUGUGUU (DNA:RNA)
# RNA: B8 RNA with A25U, U27G, A28U, A29G
# DNA 1: CAATCTGAATTCCGGTCTCCC
# DNA 2: TGGTGGCTACGACGGGATT
# B31: UGCCCGA (DNA:RNA)
# RNA: B1 RNA with G28C, G29C, C30G, G31A
# DNA 1: CAATCTGAATTCCGGTCTCCC
# DNA 2: TGGTGGCTACGACGGGATT
# Target: T1, RBFOX1 RRM
# Assay: EMSA; HiTS-Eq, 1 nM pool, 10 min; buffer printed only for the single-RNA assays: 10 mM Tris pH 7.5, 150 mM NaCl, 3.4 mM EDTA, 0.001% NP-40, 30 C
# Conditions: tags: His6 N-terminal (pET28a); label: 5' 32P
# How it was run: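 Purified RbFox RRM, wild type or mutant, was incubated for 10 min in 50 µL with 1 nM of a 5′-radiolabelled RNA pool carrying 7 randomized nucleotides, whose flanks were annealed to DNA oligonucleotides, over a series of increasing protein concentrations. Unbound RNA was resolved on 8% native PAGE, cut out, reverse-transcribed, barcoded by PCR and sequenced on an Illumina HiSeq 2500. Relative association constants were derived from changes in read counts for each RNA species versus the control reaction and normalised to the cognate motif.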
row,Binder,binding signal
1,B1,0.0232 KA relative to UGCAUGU
2,B2,0.0304 KA relative to UGCAUGU
3,B3,0.0257 KA relative to UGCAUGU
4,B4,0.00424 KA relative to UGCAUGU
5,B5,0.00624 KA relative to UGCAUGU
6,B6,0.0083 KA relative to UGCAUGU
7,B7,0.00292 KA relative to UGCAUGU
8,B8,0.00238 KA relative to UGCAUGU
9,B9,0.0113 KA relative to UGCAUGU
10,B10,0.0127 KA relative to UGCAUGU
11,B11,0.00817 KA relative to UGCAUGU
12,B12,0.00446 KA relative to UGCAUGU
13,B13,0.0153 KA relative to UGCAUGU
14,B14,0.0285 KA relative to UGCAUGU
15,B15,0.00255 KA relative to UGCAUGU
16,B16,0.0124 KA relative to UGCAUGU

row,Binder,binding signal
1,B17,0.0235 KA relative to UGCAUGU
2,B18,0.0151 KA relative to UGCAUGU
3,B19,0.0099 KA relative to UGCAUGU
4,B20,0.00764 KA relative to UGCAUGU
5,B21,0.0175 KA relative to UGCAUGU
6,B22,0.00326 KA relative to UGCAUGU
7,B23,0.00187 KA relative to UGCAUGU
8,B24,0.0261 KA relative to UGCAUGU
9,B25,0.0129 KA relative to UGCAUGU
10,B26,0.0108 KA relative to UGCAUGU
11,B27,0.0051 KA relative to UGCAUGU
12,B28,0.0087 KA relative to UGCAUGU
13,B29,0.0128 KA relative to UGCAUGU
14,B30,0.0252 KA relative to UGCAUGU
15,B31,0.0175 KA relative to UGCAUGU
